Assay results reported in patent publication US20260209357A1 (CSL INNOVATION, published 2026).

Molecular target: T1, soluble recombinant human FcRn/β2m (human, UniProt P55899 partial chain; P61769 partial chain)
T1 construct: About 42 kDa; also called HuFcRn/b2m; huFcRn/b2m
Test: SPR, ligand on surface, soluble HuFcRn/b2m as analyte; pH not printed with the table (paragraph 351 speaks of pH 6.0)

Kd: 16.1 nM
koff: 0.00295 s⁻¹
kon: 184000 M⁻¹ s⁻¹
B1: G1FcYPY-HSA[H464Q_T422W_H535F] (Fc fusion)
chain: EPKSCDKTHTCPPCPAPELLGGPSVFLFPPKPKDTLYISRTPEVTCVVVDVSHEDPEVKFNWYVDGVEVHNAKTKPREEQYNSTYRVVSVLTPLHQDWLNGKEYKCKVSNKALPAPIEKTISKAKGQPREPQVYTLPPSRDELTKNQVSLTCLVKGFYPSDIAVEWESNGQPENNYKTTPPVLDSDGSFFLYSKLTVDKSRWQQGNVFSCSVMHEALHYHYTQKSLSLSPGKDAHKSEVAHRFKDLGEENFKALVLIAFAQYLQQCPFEDHVKLVNEVTEFAKTCVADESAENCDKSLHTLFGDKLCTVATLRETYGEMADCCAKQEPERNECFLQHKDDNPNLPRLVRPEVDVMCTAFHDNEETFLKKYLYEIARRHPYFYAPELLFFAKRYKAAFTECCQAADKAACLLPKLDELR[left out - about 200 residues]NLIKQNCELFEQLGEYKFQNALLVRYTKKVPQVSTPWLVEVSRNLGKVGSKCCKHPEAKRMPCAEDYLSVVLNQLCVLQEKTPVSDRVTKCCTESLVNRRPCFSALEVDETYVPKEFNAETFTFHADICTLSEKERQIKKQTALVELVKFKPKATKEQLKAVMDDFAAFVEKCCKADDKETCFAEEGKKLVAASQAALGL
